Screen size: about 39,000 compounds; about 220 (0.56%) showed activity. This is one part of the list.
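Further: static incubation at 37 °C against the wild-type strain, values averaged over two biological replicates.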

This assay relates to Escherichia coli K-12 BW25113. Briefly: relative growth (OD600 normalised to plate interquartile mean) (fraction); higher = less growth inhibition, active = 0.2 or less. Conditions: 50 µM; LB; incubation time: overnight (16-24 h).
As to `Cc1ccc(S(=O)(=O)Nc2ccc3c(c2)C(=O)N([C@H](C)CO)C[C@@H](C)[C@H](CN(C)C(=O)Nc2ccc(C(F)(F)F)cc2)OCCCC[C@H](C)O3)cc1`, the relative growth is inactive: 0.998.

As to `COc1ccc(NC(=O)Nc2ccc3c(c2)C(=O)N([C@H](C)CO)C[C@H](C)[C@H](CN(C)C(=O)C2CCCCC2)OCCCC[C@@H](C)O3)cc1`, the relative growth is inactive: 0.986.

In the case of `O=C(C[C@@H]1CC=CCC[C@H](Cc2ccc(F)cc2)C(=O)OC[C@H](Cc2c[nH]c3ccccc23)NC1=O)N[C@@H](CO)Cc1ccccc1`, the relative growth was inactive: 0.986.

Turning to `C[C@H]1ON(c2ccc(C(=O)OC(C)(C)C)cc2)[C@@H](c2ccc(O)cc2)[C@@H]1C(=O)N1C(=O)OC[C@@H]1c1ccccc1`, the relative growth is inactive: 1.01.

For `CC1=C(/C=C/C(C)=C/C=C/C(C)=C/C=C/C=C(C)/C=C/C=C(C)/C=C/C2=C(C)C(=O)[C@@H](O)CC2(C)C)C(C)(C)C[C@H](O)C1=O`, the relative growth was inactive: 0.988.

`C=CCOC(=O)[C@H]1[C@@H]2C(=O)O[C@@H](c3ccccc3)[C@@H](c3ccccc3)N2[C@@H](c2ccc(OCCOC(=O)[C@@H]3C[C@@H]4C(=O)N[C@@H](Cc5ccccc5)C(=O)N4[C@@H]3c3ccc(O)cc3)cc2)[C@]12C(=O)Nc1ccccc12`: the relative growth is inactive: 1.06.

As to `COc1ccc(NC(=O)N(C)C[C@H]2OCCCC[C@H](C)Oc3ccc(NS(=O)(=O)c4ccc(Cl)cc4)cc3C(=O)N([C@@H](C)CO)C[C@H]2C)cc1`, the relative growth was inactive: 1.03.

`COCC#Cc1ccc2c(c1)O[C@H](CN(C)Cc1ccccc1F)[C@@H](C)CN([C@@H](C)CO)S2(=O)=O`: the relative growth was inactive: 1.06.

With `C[C@@H]1CN([C@@H](C)CO)C(=O)c2cc(NC(=O)Nc3ccccc3)ccc2O[C@@H](C)CCCCO[C@H]1CN(C)C(=O)Nc1ccc(C(F)(F)F)cc1`, the relative growth is inactive: 1.

With `C[C@@H]1CCCCO[C@H](CN(C)C(=O)Nc2ccc(C(F)(F)F)cc2)[C@@H](C)CN([C@H](C)CO)C(=O)c2cc(NC(=O)Nc3ccc(C(F)(F)F)cc3)ccc2O1`, the relative growth was inactive: 1.

With `C[C@@H]1CN([C@@H](C)CO)C(=O)Cc2cc(NS(=O)(=O)c3ccccc3)ccc2O[C@@H]1CN(C)Cc1ccc2c(c1)OCO2`, the relative growth is inactive: 0.996.

For the compound `NCCc1[nH]cnc1-c1cccs1`, the relative growth was inactive: 1.

In the case of `CC(C)NC(=O)N(C)C[C@@H]1OCCCC[C@@H](C)Oc2ccc(NC(=O)Nc3ccc(C(F)(F)F)cc3)cc2C(=O)N([C@H](C)CO)C[C@@H]1C`, the relative growth is inactive: 1.07.

For the compound `C[C@H]1CN([C@@H](C)CO)C(=O)c2cccc(NC(=O)c3ccc(-c4nccs4)cc3)c2O[C@@H]1CN(C)C(=O)Nc1ccccc1`, the relative growth was inactive: 0.984.

Consider `C[C@@H]1CCCCO[C@@H](CN(C)C(=O)CCC(F)(F)F)[C@H](C)CN([C@@H](C)CO)C(=O)c2cc(NS(=O)(=O)c3cccs3)ccc2O1`, for which the relative growth is inactive: 0.861.

With `C[C@H]1CN([C@@H](C)CO)C(=O)c2cccc(NC(=O)Nc3ccc(C(F)(F)F)cc3)c2O[C@H]1CN(C)Cc1ccc(C(=O)O)cc1`, the relative growth is inactive: 0.963.

As to `COCCNC(=O)C[C@@H]1C[C@H]2c3cc(NC(=O)COC)ccc3O[C@H]2[C@@H](CO)O1`, the relative growth was inactive: 0.998.

Regarding `C[C@H](CO)N1C[C@H](C)[C@H](CN(C)S(C)(=O)=O)Oc2ccc(NC(=O)C3CCCCC3)cc2CC1=O`, the relative growth was inactive: 1.

In the case of `C[C@@H]1CCCCO[C@H](CN(C)C(=O)Nc2ccc(F)cc2)[C@@H](C)CN([C@@H](C)CO)C(=O)c2cc(NC(=O)c3ccncc3)ccc2O1`, the relative growth was inactive: 0.983.

`O=C(NCc1csnn1)c1csnn1`: the relative growth is inactive: 0.989.

Turning to `C[C@H]1CCCCO[C@@H](CN(C)C(=O)c2ccncc2)[C@@H](C)CN([C@@H](C)CO)C(=O)c2cc(NS(=O)(=O)c3cn(C)cn3)ccc2O1`, the relative growth is inactive: 1.

For `Nc1nc(Cl)nc2c1ncn2[C@@H]1O[C@H](CO)[C@@H](O)[C@H]1O`, the relative growth is inactive: 0.986.

For `NNC(=O)CCCCCCC(=O)O`, the relative growth is inactive: 0.992.

For the compound `Cc1noc(C)c1S(=O)(=O)Nc1ccc2c(c1)C(=O)N([C@@H](C)CO)C[C@H](C)[C@H](CN(C)Cc1ccc(Oc3ccccc3)cc1)O2`, the relative growth was inactive: 1.03.

As to `C[C@H]1CN([C@@H](C)CO)C(=O)c2c(c3ccccc3n2C)-c2ccccc2CO[C@H]1CN(C)CC1CCCCC1`, the relative growth was inactive: 1.01.

In the case of `C[C@@H]1CN([C@@H](C)CO)C(=O)c2cccc(NC(=O)Nc3ccccc3)c2O[C@@H]1CN(C)C(=O)Nc1ccc(C(F)(F)F)cc1`, the relative growth is inactive: 0.997.

`C[C@H](CO)N1C[C@H](C)[C@@H](CN(C)C(=O)Nc2ccc3c(c2)OCO3)OCc2ccccc2-c2c(n(C)c3ccccc23)C1=O`: the relative growth was inactive: 0.972.

With `COC(=O)[C@H]1CCNCCC1=O`, the relative growth is inactive: 0.992.

On to `O=C(C[C@@H]1CC[C@H](NC(=O)CN2CCOCC2)[C@@H](CO)O1)NC1CCC1`, for which the relative growth was inactive: 1.02.

For the compound `Cc1c(-c2c(-c3ccc(F)o3)sc3ncnc(O[C@H](Cc4ccccc4OCc4ccnn4CC(F)(F)F)C(=O)O)c23)ccc(OCCN2CCN(C)CC2)c1Cl`, the relative growth was inactive: 0.953.

Regarding `COc1ccccc1CNC(=O)C[C@H]1C[C@H]2c3cc(NC(=O)Cc4ccncc4)ccc3O[C@H]2[C@H](CO)O1`, the relative growth is inactive: 0.998.

Take `C[C@@H]1CCCCO[C@@H](CN(C)C(=O)Nc2ccc3c(c2)OCO3)[C@H](C)CN([C@H](C)CO)C(=O)c2cc(NC(=O)Nc3ccc(C(F)(F)F)cc3)ccc2O1`: the relative growth is inactive: 1.05.

In the case of `CO[C@H]1CN(C)C(=O)c2cc(NS(=O)(=O)c3ccccc3)ccc2OC[C@H](C)N(C(=O)NC(C)C)C[C@H]1C`, the relative growth was inactive: 0.989.

On to `C[C@H](CO)N1C[C@H](C)[C@@H](CN(C)Cc2ccc(C(=O)Nc3ccccc3N)cc2)Oc2ccc(NS(=O)(=O)c3cn(C)cn3)cc2CC1=O`, for which the relative growth is inactive: 1.

For the compound `C[C@@H]1CN([C@@H](C)CO)C(=O)c2cccc(NS(=O)(=O)c3cn(C)cn3)c2O[C@H]1CN(C)Cc1ccc(C(=O)Nc2ccccc2N)cc1`, the relative growth is inactive: 0.997.

Turning to `CN1C(=O)c2cc(NC(=O)Cc3cccs3)ccc2OC[C@H]2O[C@H](CC(=O)NCCc3ccncc3)CC[C@@H]21`, the relative growth is inactive: 0.943.

For `C/C=C\C=C/[C@@H]1O[C@](O)([C@@H](CC)C(=O)NC/C=C\C=C(\C)[C@@H](OC)[C@@H](C)[C@H]2O[C@@H](\C=C/C=C\C=C(\C)C(=O)c3c(O)cc[nH]c3=O)[C@@H](O)[C@@H]2O)[C@@H](O)[C@H](O)C1(C)C`, the relative growth is inactive: 0.271.

On to `C[C@@H]1CN([C@@H](C)CO)S(=O)(=O)c2ccc(C#CCN(C)C)cc2O[C@@H]1CN(C)Cc1ccc(F)cc1`, for which the relative growth is inactive: 1.03.

`COc1cccc(S(=O)(=O)N2C[C@H](O)COC[C@H]3O[C@@H](CC(=O)NCCCN4CCOCC4)CC[C@@H]32)c1`: the relative growth is inactive: 0.999.

Consider `O=C1O[C@H](c2ccccc2)[C@H](c2ccccc2)N2[C@H]1[C@@H](C(=O)Nc1nc3ccccc3s1)[C@]1(C(=O)Nc3ccccc31)[C@H]2c1ccc(OCCO)cc1`, for which the relative growth was inactive: 1.01.

Consider `CCS(=O)(=O)NCC[C@H]1CC[C@H](NC(=O)C2CCOCC2)[C@@H](CO)O1`, for which the relative growth is inactive: 1.

For `COc1cccc(S(=O)(=O)N(C)C[C@@H]2Oc3cc(C#CCN(C)C)ccc3S(=O)(=O)N([C@H](C)CO)C[C@@H]2C)c1`, the relative growth was inactive: 1.03.

For `C=c1cc(C)cc(C)c1=C1NN=C(N)S1`, the relative growth is inactive: 0.917.

Take `CC(C)NC(=O)Nc1ccc2c(c1)CC(=O)N([C@@H](C)CO)C[C@@H](C)[C@H](CN(C)Cc1ccc3c(c1)OCO3)O2`: the relative growth is inactive: 0.979.

In the case of `COC(=O)C[C@@H]1CC[C@@H]2[C@H](COC[C@H](O)CN2S(=O)(=O)c2ccccc2C)O1`, the relative growth is inactive: 0.994.

Regarding `C[C@@H]1CN([C@@H](C)CO)C(=O)Cc2cc(NS(=O)(=O)c3cn(C)cn3)ccc2O[C@@H]1CN(C)Cc1ccc(C(=O)O)cc1`, the relative growth is inactive: 1.

Regarding `C[C@H](C(=O)NC1CCCC1)N(C(=O)Cn1nnc(-c2ccc3c(c2)OC(F)(F)O3)n1)C1CCCCC1`, the relative growth is inactive: 1.03.

In the case of `COc1cccc(S(=O)(=O)N(C)C[C@@H]2Oc3ncc(C#CCC(C)C)cc3C(=O)N([C@@H](C)CO)C[C@@H]2C)c1`, the relative growth is inactive: 1.01.

As for `COc1cccc(CNC(=O)C[C@H]2C=C[C@@H](NC(=O)C3CCOCC3)[C@@H](CO)O2)c1`, the relative growth was inactive: 0.999.

On to `COc1ccc(S(=O)(=O)Nc2ccc3c(c2)C(=O)N([C@@H](C)CO)C[C@@H](C)[C@@H](CN(C)C(=O)Nc2c(C)noc2C)OCCCC[C@H](C)O3)cc1`, for which the relative growth is inactive: 1.

For `C[C@@H]1CN([C@H](C)CO)C(=O)c2cccc(NC(=O)c3ccncc3)c2O[C@H]1CN(C)Cc1ccc2c(c1)OCO2`, the relative growth was inactive: 0.992.

`C[C@H]1CN([C@@H](C)CO)C(=O)CCCn2nncc2CO[C@H]1CN(C)C(=O)C1CC1`: the relative growth is inactive: 0.936.

Consider `O=C(C[C@H]1CC[C@@H]2[C@H](COC[C@@H](O)CN2S(=O)(=O)c2ccc(Cl)cc2)O1)NCc1ccncn1`, for which the relative growth was inactive: 1.

Take `C[C@@H]1CN([C@H](C)CO)S(=O)(=O)c2ccc(C#CC3CC3)cc2O[C@@H]1CN(C)Cc1ccc(F)cc1`: the relative growth was inactive: 0.998.

As to `C[C@H]1CN([C@@H](C)CO)C(=O)Cc2cc(NC(=O)CCN3CCOCC3)ccc2O[C@H]1CN(C)S(=O)(=O)c1cn(C)cn1`, the relative growth is inactive: 0.981.

For the compound `C[C@H](CO)N1C[C@H](C)[C@H](CN(C)C(=O)c2cccc(F)c2)Oc2cc(-c3cncnc3)ccc2S1(=O)=O`, the relative growth is inactive: 1.02.

For `Cc1noc(C)c1NC(=O)Nc1ccc2c(c1)C(=O)N([C@H](C)CO)C[C@H](C)[C@@H](CN(C)Cc1ccc(-c3ccccc3)cc1)O2`, the relative growth was inactive: 0.981.

For the origin of these results see the supplement of paper PMC9446081.
